# Assay results reported in the antibiotic and cytotoxicity screens of Wong et al. (2023).
# The list shows a part of the results.
# System: HepG2
# Assay: cytotoxicity call (relative viability < 0.9)
# Details: 10 µM
row,Structure (SMILES),cytotoxicity call
1,Cc1cccc(S(=O)(=O)N2C[C@H](O)COC[C@@H]3O[C@@H](CC(=O)NCc4ccncn4)CC[C@H]32)c1,inactive
2,Nc1nnnn1/N=C\c1ccc(O)cc1,inactive
3,C[C@@H]1CN([C@H](C)CO)C(=O)Cc2cc(NC(=O)C3CCCCC3)ccc2O[C@H]1CN(C)C(=O)Nc1cccc2ccccc12,inactive
4,NCC[C@H]1CC[C@H](NC(=O)C2CC2)[C@H](CO)O1,inactive
5,C[C@H]1CCCCO[C@H](CN(C)S(=O)(=O)c2ccc(F)cc2)[C@@H](C)CN([C@@H](C)CO)C(=O)c2cc(NC(=O)Nc3ccc(C(F)(F)F)cc3)ccc2O1,inactive
6,C[C@H]1CCCCO[C@@H](CN(C)C(=O)Nc2ccccc2)[C@@H](C)CN([C@@H](C)CO)C(=O)c2cc(NC(=O)C3CCCCC3)ccc2O1,inactive
7,C[C@@H]1CCCCO[C@H](CN(C)C(=O)Nc2ccc(F)cc2)[C@@H](C)CN([C@H](C)CO)C(=O)c2cc(NC(=O)NC3CCCCC3)ccc2O1,inactive
8,COCC(=O)N1C[C@H](C)[C@H](OC)CN(C)C(=O)c2cc(NC(=O)Nc3ccccc3)ccc2OC[C@H]1C,inactive
9,CN1C(=O)c2cc(NC(=O)C3CCOCC3)ccc2OC[C@@H]2O[C@H](CC(=O)NCc3ccc4c(c3)OCO4)CC[C@@H]21,inactive
10,COc1ccccc1S(=O)(=O)N(C)C[C@H]1Oc2cc(C#CCC(C)C)ccc2S(=O)(=O)N([C@@H](C)CO)C[C@H]1C,active
11,C[C@@H]1CN([C@@H](C)CO)C(=O)c2ccccc2-c2ccccc2CO[C@H]1CN(C)C(=O)Nc1cccc(C(F)(F)F)c1,inactive
